{"source": "paper PMC2689388", "about": "“Motor Mechanism for Protein Threading through Hsp104” (Molecular Cell, 2009)", "biological_target": "the molecule itself", "assay": "cryo-EM structure; Hsp104 N728A 0.3 mg/ml in 20 mM HEPES (pH 7.5), 20 mM NaCl, 10 mM MgCl2, 1 mM DTT, 2-5 mM nucleotide (ATPγS, ATP or ADP); 6-fold symmetrised and asymmetric reconstructions; no crosslinker", "data": [{"protein": "Hsp104^N728A (natural protein, also called Hsp104 N728A (sensor1); N728A mutant; source: purified as described in Wendler et al. (2007)) not shown", "values": [{"measurement": "stoichiometry N", "value": 6}]}]}
